# Reference: the supplement of paper PMC8728848
# This is one part of the list.
# B1: CLECb-Precomplexed (Mus musculus), P43025 (protein)
# chain: MAKNGLVLCILVVSLLLDQTDGYPSRMKARKHSKRRVKAKDDDLKSQVEKLWREVNALKEMQALQTVCLRGTKVHKKCYLASEGLKHYHEANEDCISKGGTLVVPRNSDEINALRDYGKRSLPGVNDFWLGINDMVTEGKFLDVHGFAVSFLNWDRAQPSGGKRENCVLFSQSAQGKWSDEACRSSKRYICEFIIPTRTRPLEQKLISEEDLAANDILDYKDDDDKV
# Tests used:
# Assay in all cases: glycan array binding signal (z-score within array); higher = stronger binding
# Details in all cases: glycan notation: IUPAC condensed, linker removed
# [1] = target: Gal(b1-4)GlcNAc(b1-2)Man(a1-6)[Man(a1-3)]Man(b1-4)GlcNAc(b1-4)GlcNAc
# Procedure, shortened: (§1)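 The binding signal is a Z-score computed within each array and averaged over linkers. Arrays of the same protein sequence at different concentrations or buffers were also averaged together. Data originate from 3228 arrays in the Consortium for Functional Glycomics database, kept only where the protein sequence was available.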
# [2] = target: Gal(b1-4)GlcNAc(b1-2)[Gal(b1-4)GlcNAc(b1-4)]Man(a1-3)[Gal(b1-4)GlcNAc(b1-2)Man(a1-6)]Man(b1-4)GlcNAc(b1-4)GlcNAc
# Procedure, shortened: as §1
# [3] = target: Gal(b1-4)GlcNAc(b1-2)[Gal(b1-4)GlcNAc(b1-4)]Man(a1-3)[Gal(b1-4)GlcNAc(b1-2)[Gal(b1-4)GlcNAc(b1-6)]Man(a1-6)]Man(b1-4)GlcNAc(b1-4)GlcNAc
# Procedure, shortened: as §1
# [4] = target: Gal(b1-4)GlcNAc(b1-2)[Gal(b1-4)GlcNAc(b1-4)]Man(a1-3)[GlcNAc(b1-4)][Gal(b1-4)GlcNAc(b1-2)Man(a1-6)]Man(b1-4)GlcNAc(b1-4)GlcNAc
# Procedure, shortened: as §1
# [5] = target: Gal(b1-4)GlcNAc(b1-2)[Gal(b1-4)GlcNAc(b1-4)]Man(a1-3)[GlcNAc(b1-4)][Gal(b1-4)GlcNAc(b1-2)[Gal(b1-4)GlcNAc(b1-6)]Man(a1-6)]Man(b1-4)GlcNAc(b1-4)GlcNAc
# Procedure, shortened: as §1
# [6] = target: Gal(b1-4)GlcNAc(b1-2)[Gal(b1-4)GlcNAc(b1-6)]Man(a1-6)[Gal(b1-4)GlcNAc(b1-2)Man(a1-3)]Man(b1-4)GlcNAc(b1-4)GlcNAc
# Procedure, shortened: as §1
# [7] = target: Gal(b1-4)GlcNAc(b1-2)[Gal(b1-4)GlcNAc(b1-6)]Man(a1-6)[Gal(b1-4)GlcNAc(b1-2)Man(a1-3)]Man(b1-4)GlcNAc(b1-4)[Fuc(a1-6)]GlcNAc
# Procedure, shortened: as §1
# [8] = target: Gal(b1-4)GlcNAc(b1-2)[Gal(b1-4)GlcNAc(b1-6)]Man(a1-6)[GlcNAc(b1-4)][Gal(b1-4)GlcNAc(b1-2)Man(a1-3)]Man(b1-4)GlcNAc(b1-4)GlcNAc
# Procedure, shortened: as §1
# [9] = target: Gal(b1-4)GlcNAc(b1-2)[Gal(b1-4)GlcNAc(b1-6)]Man(a1-6)[GlcNAc(b1-4)][Gal(b1-4)GlcNAc(b1-2)[Gal(b1-4)GlcNAc(b1-4)]Man(a1-3)]Man(b1-4)GlcNAc(b1-4)[Fuc(a1-6)]GlcNAc
# Procedure, shortened: as §1
# [10] = target: Gal(b1-4)GlcNAc(b1-3)Gal(b1-3)GalNAc
# Procedure, shortened: as §1
# [11] = target: Gal(b1-4)GlcNAc(b1-3)Gal(b1-3)GlcNAc
# Procedure, shortened: as §1
# [12] = target: Gal(b1-4)GlcNAc(b1-3)Gal(b1-4)Glc
# Procedure, shortened: as §1
# [13] = target: Gal(b1-4)GlcNAc(b1-3)Gal(b1-4)GlcNAc
# Procedure, shortened: as §1
# [14] = target: Gal(b1-4)GlcNAc(b1-3)Gal(b1-4)GlcNAc(b1-2)Man(a1-3)[Gal(b1-4)GlcNAc(b1-3)Gal(b1-4)GlcNAc(b1-2)Man(a1-6)]Man(b1-4)GlcNAc(b1-4)GlcNAc
# Procedure, shortened: as §1
# [15] = target: Gal(b1-4)GlcNAc(b1-3)Gal(b1-4)GlcNAc(b1-2)Man(a1-3)[Gal(b1-4)GlcNAc(b1-3)Gal(b1-4)GlcNAc(b1-2)Man(a1-6)]Man(b1-4)GlcNAc(b1-4)[Fuc(a1-6)]GlcNAc
# Procedure, shortened: as §1
# [16] = target: Gal(b1-4)GlcNAc(b1-3)Gal(b1-4)GlcNAc(b1-2)[Gal(b1-4)GlcNAc(b1-3)Gal(b1-4)GlcNAc(b1-6)]Man(a1-6)[Gal(b1-4)GlcNAc(b1-3)Gal(b1-4)GlcNAc(b1-2)Man(a1-3)]Man(b1-4)GlcNAc(b1-4)GlcNAc
# Procedure, shortened: as §1
# [17] = target: Gal(b1-4)GlcNAc(b1-3)Gal(b1-4)GlcNAc(b1-2)[Gal(b1-4)GlcNAc(b1-3)Gal(b1-4)GlcNAc(b1-6)]Man(a1-6)[Gal(b1-4)GlcNAc(b1-3)Gal(b1-4)GlcNAc(b1-2)Man(a1-3)]Man(b1-4)GlcNAc(b1-4)[Fuc(a1-6)]GlcNAc
# Procedure, shortened: as §1
# [18] = target: Gal(b1-4)GlcNAc(b1-3)Gal(b1-4)GlcNAc(b1-3)Gal(b1-4)GlcNAc
# Procedure, shortened: as §1
# [19] = target: Gal(b1-4)GlcNAc(b1-3)Gal(b1-4)GlcNAc(b1-3)Gal(b1-4)GlcNAc(b1-2)Man(a1-3)[Gal(b1-4)GlcNAc(b1-3)Gal(b1-4)GlcNAc(b1-3)Gal(b1-4)GlcNAc(b1-2)Man(a1-6)]Man(b1-4)GlcNAc(b1-4)GlcNAc
# Procedure, shortened: as §1
# [20] = target: Gal(b1-4)GlcNAc(b1-3)Gal(b1-4)GlcNAc(b1-3)Gal(b1-4)GlcNAc(b1-2)Man(a1-3)[Gal(b1-4)GlcNAc(b1-3)Gal(b1-4)GlcNAc(b1-3)Gal(b1-4)GlcNAc(b1-2)Man(a1-6)]Man(b1-4)GlcNAc(b1-4)[Fuc(a1-6)]GlcNAc
# Procedure, shortened: as §1
# [21] = target: Gal(b1-4)GlcNAc(b1-3)Gal(b1-4)GlcNAc(b1-3)Gal(b1-4)GlcNAc(b1-2)[Gal(b1-4)GlcNAc(b1-3)Gal(b1-4)GlcNAc(b1-3)Gal(b1-4)GlcNAc(b1-6)]Man(a1-6)[Gal(b1-4)GlcNAc(b1-3)Gal(b1-4)GlcNAc(b1-3)Gal(b1-4)GlcNAc(b1-2)Man(a1-3)]Man(b1-4)GlcNAc(b1-4)[Fuc(a1-6)]GlcNAc
# Procedure, shortened: as §1
# [22] = target: Gal(b1-4)GlcNAc(b1-3)Gal(b1-4)GlcNAc(b1-3)Gal(b1-4)GlcNAc(b1-3)Gal(b1-4)GlcNAc(b1-2)Man(a1-3)[Gal(b1-4)GlcNAc(b1-3)Gal(b1-4)GlcNAc(b1-3)Gal(b1-4)GlcNAc(b1-3)Gal(b1-4)GlcNAc(b1-2)Man(a1-6)]Man(b1-4)GlcNAc(b1-4)GlcNAc
# Procedure, shortened: as §1
binder,measurement,setting,value
B1,glycan array binding signal (z-score),[1],-0.062
same,glycan array binding signal (z-score),[2],-0.255
same,glycan array binding signal (z-score),[3],-0.178
same,glycan array binding signal (z-score),[4],-0.647
same,glycan array binding signal (z-score),[5],0.265
same,glycan array binding signal (z-score),[6],2.03
same,glycan array binding signal (z-score),[7],0.809
same,glycan array binding signal (z-score),[8],-0.071
same,glycan array binding signal (z-score),[9],-0.178
same,glycan array binding signal (z-score),[10],-0.561
same,glycan array binding signal (z-score),[11],-0.397
same,glycan array binding signal (z-score),[12],-0.229
same,glycan array binding signal (z-score),[13],-0.226
same,glycan array binding signal (z-score),[14],2.63
same,glycan array binding signal (z-score),[15],2.01
same,glycan array binding signal (z-score),[16],1.91
same,glycan array binding signal (z-score),[17],0.499
same,glycan array binding signal (z-score),[18],-0.579
same,glycan array binding signal (z-score),[19],0.939
same,glycan array binding signal (z-score),[20],-0.221
same,glycan array binding signal (z-score),[21],3.07
same,glycan array binding signal (z-score),[22],-0.374
